Experimental data from the supplement of paper PMC3334620.
Whole data set: some 33,000 sequences, median “E-score (-0.5 to 0.5)” near -0.04, cut for the highest 2% near 0.36. Some of the results follow.

molecular target: T1, Hmlalpha2 (UniProt P0CY09); test: PBM E-score (8-mer binding enrichment) (E-score (-0.5 to 0.5)); higher = stronger / more preferred TF binding; most listed sequences are background and not binding sites; details: protein concentration: 200 nM; construct: GST-full length
T1 sequence: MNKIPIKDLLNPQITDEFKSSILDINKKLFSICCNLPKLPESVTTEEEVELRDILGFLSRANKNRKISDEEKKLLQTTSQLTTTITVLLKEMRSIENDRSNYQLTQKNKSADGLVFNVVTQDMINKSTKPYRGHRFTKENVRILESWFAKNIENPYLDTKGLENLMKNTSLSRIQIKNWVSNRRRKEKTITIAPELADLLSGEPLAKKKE
Outline: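 Yeast transcription factors, full-length or as DNA-binding domains, were expressed with a GST tag using PURExpress in vitro transcription/translation. At about 100-200 nM they were applied to universal all-10-mer Agilent arrays, double-stranded by primer extension on fresh or once-stripped slides. Fluorescent anti-GST detected bound protein, and masliner normalised the scans. E-scores for ungapped eight-base words, pooled with reverse complements, came from the Universal PBM Analysis Suite.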

| Sequence | PBM E-score |
| --- | --- |
| CTTATGGC | -0.298 |
| GTCCAACA | 0.179 |
| GCGCCTCC | -0.215 |
| TAACTCCA | -0.137 |
| CTAGCCGA | -0.261 |
| CTCGCTGC | -0.0388 |
| AGTCCCGA | -0.108 |
| CACTTGTC | -0.226 |
| GGGCTTTA | -0.142 |
| ACGCTGAA | -0.0254 |
| AGCATCAA | 0.0657 |
| ACGTCCGG | -0.137 |
| AGTTAGGC | -0.104 |
| AACGTCAT | 0.0264 |
| CCTCATTC | -0.136 |
| TAGACCGA | -0.0145 |
| ATGCGTCA | 0.0451 |
| GCCTAATA | -0.0812 |
| ATCGTATG | 0.155 |
| CTATAAAA | 0.0964 |
| CCAACGAA | -0.092 |
| CTGAACCC | -0.137 |
| GCGACAAC | 0.123 |
| AAGTAACC | 0.0188 |
| GAAGTTCC | -0.324 |

| Sequence | PBM E-score |
| --- | --- |
| GAATTCTA | 0.13 |
| GTACTCCA | -0.138 |
| ATGTTGTC | 0.364 |
| CGAACCCC | -0.333 |
| AGGTGCGC | -0.174 |
| CCACAAGA | -0.182 |
| CACGACAC | 0.167 |
| CCGGCGGC | -0.322 |
| AGACACAC | -0.031 |
| GGATAAAA | -0.0722 |
| ATAGCATG | 0.171 |
| AGTGGACA | -0.093 |
| AGTTCAGG | -0.0941 |
| CGGGATAA | 0.221 |
| CACCTCCG | -0.121 |
| CGAATTTC | -0.0877 |
| CACTAGAA | -0.0526 |
| CCTTTGGC | -0.0752 |
| ATCTAGCG | -0.103 |
| AGGGGCAC | -0.238 |
| GTCCGAAC | -0.192 |
| CGGATTAA | -0.0582 |
| CGCGTATA | 0.372 |
| CCGTGGAC | -0.17 |
| CACAAACG | 0.241 |

| Sequence | PBM E-score |
| --- | --- |
| GCAACTAC | 0.0807 |
| CGAGGAGC | -0.107 |
| CACGGGCC | -0.0755 |
| TAGAACAA | 0.165 |
| CTCTATGC | -0.117 |
| GTTACCGA | 0.00752 |
| GCTAGCCA | -0.251 |
| CACGACTA | 0.0588 |
| AACAACTA | 0.162 |
| TCCAGCGA | -0.131 |
| CACCGTAG | -0.0717 |
| ACTCCTAT | -0.0573 |
| CGGGTACA | 0.0539 |
| CGCCCGCG | -0.114 |
| CGTTGGTC | -0.102 |
| CCTTTCGC | -0.175 |
| CTACTCTC | -0.182 |
| GGCCTATA | -0.278 |
| CCATCGCA | -0.184 |
| AGTGCGGC | -0.177 |
| AATTTTAG | -0.0104 |
| ATACGCTC | 0.213 |
| ACCTTCAA | 0.143 |
| ACGAGCAC | -0.0142 |
| CAAGTCGC | -0.243 |

| Sequence | PBM E-score |
| --- | --- |
| CCATCTCA | -0.243 |
| AGAAATTG | -0.132 |
| GTATCATA | 0.246 |
| CGGTGAAG | -0.253 |
| ACGTCAGA | 0.0938 |
| CTGGACTC | -0.0558 |
| AAGCCTTC | -0.104 |
| GCCAAGCA | -0.147 |
| ATAGCCCC | -0.178 |
| CCATCAAA | -0.163 |
| CAGATCAA | 0.0317 |
| CTAATACA | 0.342 |
| GCACACGC | 0.0292 |
| AAATAACA | 0.316 |
| CCAGAAGC | -0.302 |
| GATACGGC | -0.173 |
| TAATCTAA | 0.162 |
| AGTGGGAT | -0.0546 |
| CCTTCCCA | -0.15 |
| AAGACCCA | -0.253 |
| CATTAGAC | -0.164 |
| GAGGGGTA | -0.281 |
| GCTCATGA | -0.053 |
| AGAGCGAA | -0.102 |
| AGCGAGTA | 0.158 |

| Sequence | PBM E-score |
| --- | --- |
| ACTGGCAC | -0.251 |
| GATCTCAA | 0.0566 |
| CTGAGACC | -0.106 |
| GGATGGCC | -0.217 |
| AGTGCCAA | -0.0269 |
| GGGTTTAC | 0.211 |
| TATAAATA | 0.179 |
| ATACGCCG | 0.0255 |
| ATACCTAA | 0.119 |
| AAAGCACA | 0.123 |
| AACCTGCA | -0.145 |
| AACGGGCG | -0.168 |
| AATACATA | 0.444 |
| GGTTACAA | 0.294 |
| AAACTAGC | -0.112 |
| GGATAAAC | 0.198 |
| CCCCGTGA | -0.253 |
| CGCAGGTC | -0.122 |
| GAGAATAA | 0.0756 |
| AAGAAATC | -0.0354 |
| AGTTCGAT | 0.0721 |
| AATGGGGG | -0.322 |
| AACTCCGT | 0.0205 |
| AAGAAAGC | -0.142 |
| ACAGCCAT | 0.162 |

| Sequence | PBM E-score |
| --- | --- |
| CAACCGAA | -0.0155 |
| ACAACACA | 0.405 |
| ACGGTAAG | -0.0885 |
| GCGGGTAC | -0.0244 |
| AGAATGGC | -0.0602 |
| AGGCAACT | 0.162 |
| TATCCTCA | -0.113 |
| AAGGGACC | -0.279 |
| AACGAAAT | 0.101 |
| CCTCATAG | -0.186 |
| AACTGTAT | 0.134 |
| CCAGGAAG | -0.0163 |
| GCTAGTAC | 0.0705 |
| TCATCGCA | 0.104 |
| AGCACGTG | 0.239 |
| AGGGAGTG | -0.23 |
| AATAGTGA | 0.0551 |
| AGAGGCAG | -0.307 |
| ACTAGCCC | -0.0194 |
| AATGCGTC | -0.0373 |
| CGGCTACC | -0.0726 |
| AGAGCCTC | -0.407 |
| CTGGCTCC | -0.238 |
| CAGAGATA | 0.0233 |
| CAGAGTAA | 0.0512 |

| Sequence | PBM E-score |
| --- | --- |
| ACGGGAAG | -0.0832 |
| GTTCCTTA | -0.0384 |
| TGTCTTAA | 0.217 |
| ATCACTAC | 0.0341 |
| AGTTCGGA | -0.0234 |
| ATTTGCAA | 0.158 |
| ACGGCCTG | -0.0496 |
| GGAACGCC | -0.189 |
| CCACCTGA | -0.205 |
| AAAATCAA | 0.102 |
| AACACCGC | 0.0614 |
| GCAATCTA | 0.119 |
| ACTGCGTG | -0.00695 |
| GCAGCTCA | -0.181 |
| TGATAACA | 0.351 |
| CAGCGATC | -0.0974 |
| CAGGCGGA | 0.00932 |
| GTCACTCA | 0.0271 |
| TAAAGAGA | 0.13 |
| GACACCAC | -0.108 |
| AGATAAAT | 0.0654 |
| CGTAGTGA | 0.0926 |
| ACGGCAGC | -0.0412 |
| AATGTAGC | -0.0794 |
| ACATACTC | 0.216 |

| Sequence | PBM E-score |
| --- | --- |
| AGGTCGCA | -0.183 |
| GTTTCAAA | 0.079 |
| AGGAGGGA | -0.264 |
| CATCGTGG | -0.287 |
| TGCAGTAA | 0.0433 |
| ACCGTGGG | -0.277 |
| ACTAGGCA | -0.0725 |
| GTCCGGAA | -0.0754 |
| CACGCACG | 0.196 |
| ACAGAGAT | 0.195 |
| ATTGGGTG | -0.0614 |
| ATTTTGCC | -0.0288 |
| ATATTGCG | -0.0116 |
| GTCCTCGA | -0.104 |
| ACAGAGCA | 0.105 |
| ACTCATTA | 0.183 |
| AATATCTC | -0.119 |
| CAACGCGC | 0.335 |
| AGCAACAA | 0.199 |
| ACGGTGAT | -0.00363 |
| TAATCCCA | 0.164 |
| ATCCGTCG | -0.0869 |
| GATTGGAC | -0.158 |
| ATTTGATC | -0.212 |
| CGCCTCAG | -0.256 |

| Sequence | PBM E-score |
| --- | --- |
| AATACCCC | -0.348 |
| ATGGAATA | 0.115 |
| AAAACCAG | 0.0428 |
| CCTATCTA | -0.113 |
| CCTAGAAC | -0.037 |
| ACAACGCA | 0.261 |
| CCACTAAA | -0.132 |
| AGTTGGAG | -0.196 |
| GAACTGAC | -0.00291 |
| CTGGTCTC | -0.316 |
| GCAACCAC | -0.0661 |
| ACGTTGCC | -0.0821 |
| ACCCATTG | -0.123 |
| ACTGTGCT | 0.0299 |
| CGGTGAGA | -0.0556 |
| AGACCCGG | -0.18 |
| ACCCGAGA | -0.255 |
| CAATACAC | 0.431 |
| CACTGGCG | 0.0622 |
